Source: the RNAGym collection of RNA variant scans (doi:10.7554/elife.90254)
Read counts are not given, so values of variants with three or more changes are uncertain.

B1: OR4K15 (parent)
chain: GUUAACGGUCAUAGGCCAUGGAAACUAGGAGCACCAUUUCGCUGCCAGUGAAGAAAUGAACAAAGAAAAUCUGGGCCAGGCAGGCAUCAAAAGAAAUAGUCUUGCGCUCAACCAGAAAGUCUGUAAUCAUUUUAAGGGUA

Variants of: B1
Test: self-cleavage, relative activity (ratio to wild type); higher = more cleavage; in vitro, sequencing; the parent is a self-cleaving ribozyme
A68G A117G U127C showed a self-cleavage of 1.08.
Variant A68G U97C U127C has a self-cleavage of 0.68.
Variant A69G A129C U131C has a self-cleavage of 1.38.
For A69G U130C A135C, the self-cleavage was 0.53.
A69G U70C A86G A110G showed a self-cleavage of 0.02.
A69G A91G U132A showed a self-cleavage of 1.
Variant A69G U72A U102C has a self-cleavage of 0.26.
U70C A90G A91G A125G gave a self-cleavage of 0.02.
In the case of A68U A116G A129G, the self-cleavage is reported as 0.51.
C71U U72C U87A U127A showed a self-cleavage of 0.41.
With A69G A86G U108C the self-cleavage was 0.01.
For A68G A89G U127C U139C, the self-cleavage was 0.81.
For U70C A89U U100C U120C, the self-cleavage was 0.45.
With U70C A82G U122C the self-cleavage was 0.11.
In the case of A69G A92G U108C, the self-cleavage is reported as 0.
U70C A82U A91G showed a self-cleavage of 0.13.
Variant A69G U70A U108C G115A has a self-cleavage of 0.02.
Variant U70C A90G U127C has a self-cleavage of 0.26.
A69G U108C A110G A111G gave a self-cleavage of 0.01.
A68U U108C A111G U139A showed a self-cleavage of 0.01.
A68G G93U A110C showed a self-cleavage of 0.45.
For A68G A91G U122A U131C, the self-cleavage was 0.15.
Variant A68G U100C A116G has a self-cleavage of 1.46.
In the case of U72C G83A A94G A140G, the self-cleavage is reported as 0.24.
Work on A69U C81U A89U U102C U108C yielded a self-cleavage of 0.01.
Variant A68G U70G U108C U127A has a self-cleavage of 0.06.
For U72A A86G A110G U124A, the self-cleavage was 0.03.
Variant A69G U108C U130C has a self-cleavage of 0.01.
U70C C77U U103A gave a self-cleavage of 0.03.
U70C A90G A116G showed a self-cleavage of 0.88.
A68G U72A U103C U127C showed a self-cleavage of 0.05.
With A68G U87C A129U the self-cleavage was 0.07.
Work on C71U A82U A91G yielded a self-cleavage of 0.14.
With A68G A111G A126G the self-cleavage was 0.
Variant U72A A98G U124C A135U has a self-cleavage of 0.02.
In the case of A69G A86G A116G A117G, the self-cleavage is reported as 0.47.
U70C G80U U103C A118G showed a self-cleavage of 0.04.
U72C U103A G123A gave a self-cleavage of 0.09.
For U72C A90G U100C A110U U131C, the self-cleavage was 0.16.
Work on U70C G75C A94G A116G yielded a self-cleavage of 0.03.
A68G A117G A140G showed a self-cleavage of 2.33.
With A68G U87A A125G U132A the self-cleavage was 0.41.
Work on U72A G79U U102A G104A yielded a self-cleavage of 0.01.
Variant U70C G79U A96G A110U A117G has a self-cleavage of 0.17.
A69G A86G U97C gave a self-cleavage of 0.56.
For A69G U87C U108C A118G, the self-cleavage was 0.
For A69G U103C A111G, the self-cleavage was 0.03.
For A69G A78U U102C, the self-cleavage was 1.32.
A69G A90U A96U gave a self-cleavage of 1.34.
U72A A95G U122C A134U gave a self-cleavage of 0.14.
In the case of A69U U87C U108C, the self-cleavage is reported as 0.
In the case of U70C U130C U131C, the self-cleavage is reported as 0.21.
Variant A69G A82G U108C U131C has a self-cleavage of 0.01.
U70C U72C C105U A117U U131A showed a self-cleavage of 0.
Work on A68G A96U U103C yielded a self-cleavage of 1.
A68G A91G A118G U131C showed a self-cleavage of 0.37.
With U72C A89U U132A the self-cleavage was 0.11.
C71U U87C U122C gave a self-cleavage of 0.21.
Work on U72A A94G A110U A117G A135G yielded a self-cleavage of 0.1.
For U70C A116G U127C, the self-cleavage was 1.65.
For U70A U127C U131C, the self-cleavage was 0.9.
For A69G A94G U100C A117G, the self-cleavage was 2.46.
With U72C U131A A134G the self-cleavage was 0.09.
With A69U A92G A110U the self-cleavage was 1.87.
For U70C A86U A96G, the self-cleavage was 0.53.
For A68U U72C A94G U131C, the self-cleavage was 0.16.
In the case of A68G A96U A114U A125G, the self-cleavage is reported as 0.02.
Variant U72C U87C A118G A140U has a self-cleavage of 0.12.
For A69U A95G U103C, the self-cleavage was 1.7.
In the case of A68G A86G U97C, the self-cleavage is reported as 1.32.
With U72A U100C U139A the self-cleavage was 0.73.
A69G A78U A114C showed a self-cleavage of 0.
Variant A68G A114C A125G has a self-cleavage of 0.
In the case of U70C A82G A118C, the self-cleavage is reported as 0.03.
With U72A U87C A92U A117G the self-cleavage was 0.18.
In the case of A68G A98G C105G, the self-cleavage is reported as 0.01.
With U72C A86G U102C the self-cleavage was 0.04.
In the case of A69G A98U A114G, the self-cleavage is reported as 0.75.
A68G U72C A90G A110G gave a self-cleavage of 0.03.
Work on A68G U70C U103C A117G yielded a self-cleavage of 0.76.
Variant A68G A90G A110G has a self-cleavage of 0.11.
U72G U124A A129G showed a self-cleavage of 0.25.
U70C A78U U130C showed a self-cleavage of 0.14.
For A69C A95G A111G A126G, the self-cleavage was 0.01.
U70A A117G U130C U131C showed a self-cleavage of 0.41.
Work on A69G A90C A111G yielded a self-cleavage of 0.03.
For U70C A86U A95G, the self-cleavage was 0.93.
In the case of U72A A91U A94U A110G, the self-cleavage is reported as 0.07.
For A69U U102C A111G A129G, the self-cleavage was 0.
In the case of U72C C105U A110G, the self-cleavage is reported as 0.04.
Work on U70C U103C U130C yielded a self-cleavage of 0.01.
For A68G A117G U130C U131C, the self-cleavage was 1.68.
Variant A68G U72C A116U has a self-cleavage of 0.11.
Variant U72C U102C A110U has a self-cleavage of 0.27.
A68G U108C A118G showed a self-cleavage of 0.
Variant A68G A126G A129G A135G has a self-cleavage of 0.71.
U72G A92G A110U A129U showed a self-cleavage of 0.11.
For U72A U122C A135G, the self-cleavage was 0.13.
For A69G U70G U72C U124C, the self-cleavage was 0.17.
G73A A78G U120C gave a self-cleavage of 0.07.
Variant U72C U102C A114U U127A has a self-cleavage of 0.03.
In the case of U70C A95G U102C A116U A126G, the self-cleavage is reported as 1.11.
A69G A82U A90G A110G showed a self-cleavage of 0.02.
For U70C U87C U102C, the self-cleavage was 1.02.
In the case of A68G A118G U131C, the self-cleavage is reported as 0.94.
With A68U U70C A78G A95G U120C U122C the self-cleavage was 0.21.
For A69G U100C A126G U131C U132C, the self-cleavage was 2.13.
Variant U70C G123A U130C has a self-cleavage of 0.26.
U72A A90U U108C G123A gave a self-cleavage of 0.01.
For U72A A91G U120C, the self-cleavage was 0.07.
For U70C A111G A117G, the self-cleavage was 0.05.
Work on U70C A86U A111G yielded a self-cleavage of 0.02.
A69G U108C A110G showed a self-cleavage of 0.
Variant A68G U103C U108C A114U has a self-cleavage of 0.02.
U72C A94G A135G gave a self-cleavage of 0.19.
U72C A86G U130C gave a self-cleavage of 0.16.
Variant A69G A96G A117G has a self-cleavage of 1.72.
With A69G A111G U122C the self-cleavage was 0.01.
Variant U70C A118U U120C has a self-cleavage of 0.09.
Variant U72G A78U A89U has a self-cleavage of 0.2.
In the case of U72A A82U G106U U108A, the self-cleavage is reported as 0.01.
For A68G G79A A129G U132A, the self-cleavage was 0.02.
In the case of A68G U100C A126G, the self-cleavage is reported as 0.99.
U72C A96G G119A showed a self-cleavage of 0.3.
Work on A69G U72C A96G yielded a self-cleavage of 0.25.
A69G A94G U122C A129G showed a self-cleavage of 1.53.
C71A A110G A111G U131C gave a self-cleavage of 0.01.
With C71A U120A A125G the self-cleavage was 0.14.
With A68G A96G A118G U127A the self-cleavage was 1.47.
Variant A68G A86U A114G has a self-cleavage of 0.34.
For A68G A92G A117G A135U, the self-cleavage was 1.91.
In the case of A68G A118G U130C, the self-cleavage is reported as 0.74.
Work on G73A A111G A114G yielded a self-cleavage of 0.02.
For A69U U70C A86U A98G A116G G119U U131C, the self-cleavage was 1.66.
Work on A69G A98G A129U yielded a self-cleavage of 0.19.
For A69G A89U U130C, the self-cleavage was 0.78.
A69U U103G C121U showed a self-cleavage of 0.02.
For U72C A95G A129G, the self-cleavage was 0.14.
For U70G A82G A92G A126G, the self-cleavage was 0.13.
A69G A94G U108C gave a self-cleavage of 0.01.
Work on U72C A89G U108C yielded a self-cleavage of 0.01.
U70C A78G U87A U122C showed a self-cleavage of 0.01.
With U72C G119C G123A the self-cleavage was 0.08.
With A69G A82U U139C A140G the self-cleavage was 0.23.
With A69G U132A A134G the self-cleavage was 1.57.
With A69G A92G A94G the self-cleavage was 1.47.
U72A A86U A117G showed a self-cleavage of 0.3.
In the case of U70C A82U U131A U132C, the self-cleavage is reported as 0.19.
U72A A82U A116G showed a self-cleavage of 0.14.
In the case of U72C U87C U108C, the self-cleavage is reported as 0.
Work on U72C A91G A94G yielded a self-cleavage of 0.13.
For U70A A90U U133A, the self-cleavage was 1.26.
Variant U72A A98U U132A has a self-cleavage of 0.1.
A68G A114G U120C showed a self-cleavage of 0.12.
Variant A69G A111G A114U has a self-cleavage of 0.03.
Work on U72A A96G U100C A116U U120C yielded a self-cleavage of 0.11.
With A68G U108A U120A the self-cleavage was 0.02.
Work on U72A A82G A110G C112U yielded a self-cleavage of 0.
With A68G U103C U139C the self-cleavage was 1.16.
With A68G A111G A116G the self-cleavage was 0.03.
Work on A69G A89G A96G yielded a self-cleavage of 0.67.
Variant U70G A82G A96G A126G has a self-cleavage of 0.12.
In the case of A68G C85U U103C, the self-cleavage is reported as 0.29.
With U72C A90G A91G U122G the self-cleavage was 0.25.
For U72A A82G A118G, the self-cleavage was 0.13.
With A68G A118U U122C the self-cleavage was 0.55.
With A69G U124C A135U the self-cleavage was 0.67.
